The record followed here is ChEMBL document CHEMBL4673226, “Development of 5-Aminopyrazole-4-carboxamide-based Bumped-Kinase Inhibitors for Cryptosporidiosis Therapy” (J Med Chem, 2019).

What is called Cmax is the highest concentration seen after dosing. What is called solubility is the dissolved amount per volume that the medium holds. As a reminder, the CL/F is the apparent clearance, not corrected for the fraction that reaches the circulation. A word on the AUC: it is the area under the concentration-time curve, a measure of exposure. A high value points to more exposure. In general, half-life refers to the time in which the quantity being followed falls by half. A high value points to slow loss.

Values after ≈ are worked out from the molar mass of the structure shown.

A short description of series [1]: in vivo. The following applies: mouse, po, 25 mg/kg.
Series [2] can be described thus: Solubility in pH 6.5 solution. Particulars: buffer.
A short description of series [3]: Clearance in mouse at 25 mg/kg, po. Type of series: ADME, organism-based. The following applies: in vivo.
The nature of series [4]: AUC in mouse at 25 mg/kg, po. Type of series: ADME, organism-based. Set-up: dose 25 mg/kg. The following applies: in vivo.
Series [5] in a line: Half life in mouse at 25 mg/kg, po. The following applies: in vivo.
A short description of series [6]: Protein binding in mouse plasma by dialysis method.
A short description of series [7]: Solubility in pH 2.0 solution. The following applies: buffer.
Series [8] in a line: Clearance in mouse at 10 mg/kg, po. Type of series: ADME, organism-based. Particulars: in vivo.
Series [9] is described as follows: AUC in mouse at 10 mg/kg, po. Type of series: ADME, organism-based. The arrangement: dose 10 mg/kg. The following applies: in vivo.

In series [1], `CC(C)(CO)Cn1nc(-c2ccc3nc(OC4CC4)ccc3c2)c(C(N)=O)c1N` had a Cmax of 1900 nM. The results for the solubility in [2] and in series [7] were 100 µM (≈ 39.5 µg/mL) and more than 100 µM, respectively. The molecule also came in with an apparent clearance (CL/F) in [3] of 0.1 mL/min. Besides, the exposure (AUC) in [4] is 11910 µmol·min/L. The molecule also showed a half-life in series [5] of 196 h. In addition, the PPB in series [6] is on record as 67%.
As for `CC(C)(CO)Cn1nc(-c2ccc3cc(OC4CC4)ccc3c2)c(C(N)=O)c1N`, the solubility stood at 98 µM (≈ 38.7 µg/mL) in series [2] and 93 µM (≈ 36.7 µg/mL) in series [7]. The CL/F in [8] is 2.2 mL/min. The exposure (AUC) in series [9] worked out at 247.1 µmol·min/L.
